Over roughly 110,000 compounds, “z-score” has its median near -0.1; the highest 2% begin near 2. The list shows a part of the results.
The compounds below were run against Metabotropic glutamate receptor 8 (Rattus norvegicus) (UniProt P70579) (assay: rat mGluR8 modulators via GIRK flux, primary screen, cell-based, thallium flux, HTS (AID 488969)). Conditions: HEK293 rat mGluR8, GIRK (G protein-gated inwardly rectifying potassium channel) thallium flux, FluoZin2; at 10 µM; stronger effect = higher value; submaximal glutamate (EC20) added with thallium.
Sequence of UniProt P70579 (P70579 whole entry, looked up): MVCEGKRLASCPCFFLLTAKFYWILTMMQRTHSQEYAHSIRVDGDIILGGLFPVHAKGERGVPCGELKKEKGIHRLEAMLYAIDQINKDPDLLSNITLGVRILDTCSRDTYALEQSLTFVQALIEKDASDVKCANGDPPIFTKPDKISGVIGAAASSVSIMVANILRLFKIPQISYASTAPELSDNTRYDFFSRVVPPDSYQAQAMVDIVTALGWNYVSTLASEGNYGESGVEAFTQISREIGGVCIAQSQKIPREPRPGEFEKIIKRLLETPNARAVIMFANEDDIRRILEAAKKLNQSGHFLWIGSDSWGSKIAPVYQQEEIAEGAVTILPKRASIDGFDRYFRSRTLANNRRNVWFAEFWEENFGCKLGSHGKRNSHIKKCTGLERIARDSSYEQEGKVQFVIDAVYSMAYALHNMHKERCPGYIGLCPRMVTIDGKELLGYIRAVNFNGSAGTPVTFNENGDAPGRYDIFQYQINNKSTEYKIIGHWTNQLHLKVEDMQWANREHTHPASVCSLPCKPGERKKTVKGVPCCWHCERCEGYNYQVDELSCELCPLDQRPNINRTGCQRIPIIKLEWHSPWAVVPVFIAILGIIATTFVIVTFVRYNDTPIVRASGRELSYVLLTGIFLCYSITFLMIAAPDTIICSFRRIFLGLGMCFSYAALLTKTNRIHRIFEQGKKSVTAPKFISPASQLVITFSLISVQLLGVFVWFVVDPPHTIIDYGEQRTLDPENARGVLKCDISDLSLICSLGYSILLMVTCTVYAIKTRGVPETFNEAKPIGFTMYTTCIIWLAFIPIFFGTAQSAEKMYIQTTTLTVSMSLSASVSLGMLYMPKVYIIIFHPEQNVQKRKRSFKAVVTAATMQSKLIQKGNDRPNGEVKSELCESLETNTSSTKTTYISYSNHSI
`CCSc1nc(-c2ccccc2)c2cc(Cl)ccc2n1` gave a z-score of -0.0154. With `C=CCOC(=O)C1=C(C)NC(SCC(=O)Nc2ccccc2)=C(C#N)C1c1ccco1` (stereo not drawn) the z-score was 0.334. Work on `c1csc(C2C3=C(Nc4ncnn42)c2ccccc2OC3)c1` (stereo not drawn) yielded a z-score of -1.39. For `O=C(Cc1ccccc1)Nc1c[nH]c(=O)[nH]c1=O`, the z-score was -0.449. In the case of `O=C(NC1(C(F)(F)F)NC(=O)N(Cc2cccnc2)C1=O)c1ccc(F)cc1` (stereo not drawn), the z-score is reported as 0.269. In the case of `O=C(Nc1nc(-c2ccc(S(=O)(=O)N3CCCC3)cc2)cs1)c1cccs1`, the z-score is reported as 0.246. `CCOc1ccc(N=c2scc(-c3ccccc3)n2CCO)cc1` gave a z-score of -0.02. `O=[N+]([O-])c1cc(C(F)(F)F)c(Cl)cc1N1CCN(CCO)CC1` showed a z-score of -0.0504. For `COc1ccc(C(C)=O)cc1CN1C(=O)NC2(CCCCCC2)C1=O`, the z-score was -0.0628. Compound `COc1ccc(NC(=O)CSc2nnc(COc3ccccc3)n2Cc2ccco2)cc1OC` has a z-score of -0.561. `S=C(NCCc1ccccc1)Nc1ccc(Cl)cc1Cl` showed a z-score of 1.43. `Cc1ccc(C2CC(=O)N3CN(Cc4ccco4)CSC3=C2C#N)cc1` (stereo not drawn) showed a z-score of 0.0204. With `CCCCN(CCCC)CCNC(=O)Cc1nc2c(c(=O)[nH]c(=O)n2C)n1C` the z-score was 0.198. In the case of `Clc1ccc(SCc2cc(-c3ccc(Cl)cc3)on2)cc1`, the z-score is reported as -0.169. With `Cc1cc2cc(CNC(=O)c3ccc4c(c3)OCO4)ccc2[nH]1` the z-score was -0.404. `Cc1ccc(S(=O)(=O)N(C)CC(=O)OCC(=O)c2c(N)n(C)c(=O)n(C)c2=O)cc1` showed a z-score of 0.00287. Compound `CC1CCCCN1C(=O)CSc1nc(C2CC2)nc2c1cnn2-c1ccccc1` (stereo not drawn) has a z-score of -0.0765. Compound `Cc1ccc(OCC(=O)N2CCN(S(=O)(=O)c3ccccc3)CC2)c([N+](=O)[O-])n1` has a z-score of -0.252. `Cc1cc(C)n(-c2ccc(C(=O)Nc3ccc4c(c3)OCO4)cc2)n1` showed a z-score of -0.499. `Cc1cc(C)nc(-n2nc(C)c(Oc3ccccc3O)c2C)n1` gave a z-score of -0.176. For `COc1ccc(-c2csc(NC(=O)CSc3nc(SC)ns3)n2)cc1`, the z-score was -0.0415. `O=C(/C=C/c1cccc([N+](=O)[O-])c1)Nc1cccc(NC(=O)c2cccs2)c1` showed a z-score of 0.123. With `COC(=O)c1sccc1NC(=O)CSc1ccccc1NS(=O)(=O)c1ccc(F)cc1` the z-score was 0.941. `COc1ccc(N2CCN(C(c3cc(OC)ccc3OC)c3nnnn3CC3CCCO3)CC2)cc1` (stereo not drawn) showed a z-score of -0.274. In the case of `CCSc1ccc(C(=O)Nc2cccc(C)n2)cc1[N+](=O)[O-]`, the z-score is reported as -0.169. Compound `CCOc1nc(C)ccc1-c1noc(-c2ccccn2)n1` has a z-score of 0.421. `O=c1[nH]c2ccc(S(=O)(=O)N3CCC(Cc4ccccc4)CC3)cc2o1` was tested, and the z-score was -0.00931. With `COc1ccc(OC)c(C2=Nn3c(nnc3C3CCCCC3)SC2)c1` the z-score was -1.01. `COCCSc1ccccc1C(=O)NCc1ccco1` was tested, and the z-score was 0.383. With `COc1ccc(/C(N)=N/OC(=O)c2cc(-c3ccccc3)nc3ccccc23)cc1` the z-score was -0.412. `Cc1ccc(S(=O)(=O)N2CCOCC2)cc1NC(=O)c1cc2c(s1)CCC2` was tested, and the z-score was -0.409. For `CCOc1cc2[nH]c(=S)n(Cc3ccc(C(=O)NCC(OC)OC)cc3)c(=O)c2cc1OCC`, the z-score was 0.127. With `O=C(NCc1cccc(Cl)c1)c1ccc2c(c1)OCO2` the z-score was 0.172. For `COCC(=O)Nc1cc(C(=O)Nc2ccccc2C)ccc1Cl`, the z-score was 0.0183. `Cc1cc(Nc2c(C)cccc2C)n2nc(C)nc2n1` was tested, and the z-score was -0.233. With `CC(=O)c1ccc(Cc2ncc(C(F)(F)F)cc2Cl)s1` the z-score was -0.823. `COc1ccc(C2CC(c3cc(OC)ccc3OC)n3nnnc3N2)cc1` (stereo not drawn) was tested, and the z-score was -0.434. `O=C(Oc1cccc2cccnc12)c1ccc2c(c1)OCCO2` showed a z-score of -0.00985. `CC(=O)NCCOc1cccc(OCCNC(C)=O)c1` showed a z-score of 0.179. `CCN(CC)S(=O)(=O)c1ccc2c(c1)nc(SCn1nnc3ccccc3c1=O)n2CC` was tested, and the z-score was -0.0802. For `Cc1noc(C)c1S(=O)(=O)Nc1ccc(C(=O)N2CCN(c3ccc(Cl)cc3)CC2)cc1`, the z-score was -0.984. Compound `Cc1ccc(C2=NN=C(NC(=O)CSc3nc(C)cc(C)n3)SC2)cc1` has a z-score of -0.0372. For `O=C(N=Nc1c(O)n(Cc2ccccc2)c2ccccc12)c1cc2ccccc2cc1O`, the z-score was -0.0283. Compound `O=C(OC(C(=O)NCC1CCCO1)c1ccccc1F)c1ccco1` (stereo not drawn) has a z-score of 0.0215. `COC(=O)C(NNc1ccccc1)(NC(=O)c1cccc(F)c1)C(F)(F)F` (stereo not drawn) showed a z-score of -0.19. Compound `CCOC(=O)N1CCN(C(=O)CN(Cc2ccc(Cl)cc2)S(C)(=O)=O)CC1` has a z-score of 1.38. For `CCCCNc1cc(NC(C)=O)cc2cc(OC)c(OC)cc12`, the z-score was -0.206. Compound `O=C(NC(=S)Nc1ccc2c(c1)C(=O)c1ccccc1C2=O)c1ccc(F)cc1` has a z-score of 0.202. Compound `O=C(NCCc1nc2ccccc2[nH]1)/C(=C/c1ccc2c(c1)OCO2)NC(=O)c1ccccc1` has a z-score of -0.434. `Cc1cc(N2CCCCC2)nc2ccc(NC(=O)CCC(=O)NCCC(C)C)cc12` was tested, and the z-score was 0.0395. `CCN(CC)C(=O)C1CCCN(c2ccc([N+](=O)[O-])cc2/C=N/NC(=O)c2cccc(O)c2)C1` (stereo not drawn) gave a z-score of -0.317. Work on `C/C=C(\C)c1nnc(NC(=O)c2ccco2)s1` yielded a z-score of -0.358. Compound `COC(=O)NCc1cc2cc(Cl)ccc2[nH]1` has a z-score of 0.0934. `Cc1nn(-c2ccc(F)cc2)c2sc(C(=O)OCC(=O)N3CCC(C)CC3)cc12` showed a z-score of 0.389. `NC(=O)C1CCN(C(=O)CCSc2ccccc2)CC1` was tested, and the z-score was 0.469. For `COc1ccc(-c2nc(C#N)c(NCCc3ccccc3)o2)cc1OC`, the z-score was -1.21. In the case of `Cn1cccc1C(=O)OCC(=O)c1cc2ccccc2o1`, the z-score is reported as -0.00869. In the case of `CCCNC(=O)Cn1nc([N+](=O)[O-])c([N+](=O)[O-])c1C`, the z-score is reported as -0.278. Compound `Cc1c(NC(=O)c2n[nH]c(=O)c3ccccc23)c(=O)n(-c2ccccc2)n1C` has a z-score of -0.159. With `CCCC(=O)Nc1nc2nc(-c3ccccc3)cc(=O)n2[nH]1` the z-score was -0.289. `COc1ccc(Cl)cc1NC(=O)C(C)N(C)Cc1ccc(C(F)(F)F)cc1` (stereo not drawn) gave a z-score of -0.0204. In the case of `Cn1cccc1Cc1nnc(SCC(=O)NC2CCCC2)n1-c1ccc(F)cc1`, the z-score is reported as 2.33. `O=C(O)/C=C/c1coc2ccc(F)cc2c1=O` was tested, and the z-score was 0.248. `Cn1c(=O)c2c(nc(SCc3cccnc3)n2Cc2ccc(F)cc2)n(C)c1=O` gave a z-score of -0.105. For `CCOc1ccc(C(=O)C2CCN(C(=O)c3ccccc3C(=O)O)CC2)cc1`, the z-score was -0.0212. Work on `Cc1ccc(OCC(=O)Nc2ccc(O)c(C(=O)O)c2)cc1C` yielded a z-score of 0.0933. With `Cc1ccc2nc(NC(=O)C3=NN(c4ccccc4)C(=O)CC3)sc2c1` the z-score was 0.175. `O/C(=C\Sc1nnc(Cc2ccccc2)o1)c1ccc(Br)cc1` showed a z-score of -0.229.

Source: PubChem BioAssay AID488969 (Vanderbilt High Throughput Screening Facility, 2010)
